Test results reported in the supplement of paper PMC3334620.
Over roughly 33,000 sequences, “E-score (-0.5 to 0.5)” has its median near -0.04; the highest 2% begin near 0.36. The list shows a part of the results.

These sequences were tested against T1, Hmlalpha2 (UniProt P0CY09) (assay: PBM E-score (8-mer binding enrichment) (E-score (-0.5 to 0.5)); higher = stronger / more preferred TF binding; most listed sequences are background and not binding sites). Details: protein concentration: 200 nM; construct: GST-full length.
T1 sequence: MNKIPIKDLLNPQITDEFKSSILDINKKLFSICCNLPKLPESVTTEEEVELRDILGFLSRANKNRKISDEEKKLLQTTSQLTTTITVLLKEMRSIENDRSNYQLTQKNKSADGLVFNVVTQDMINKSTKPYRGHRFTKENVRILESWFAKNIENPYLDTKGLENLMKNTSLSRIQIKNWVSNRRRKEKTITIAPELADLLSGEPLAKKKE
Summary of the method: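 Universal all-10-mer Agilent arrays, fresh or stripped once, were converted to double-stranded form by primer extension. GST-tagged yeast transcription factors from PURExpress in vitro transcription/translation, full-length or DNA-binding domain only, were applied at about 100-200 nM and detected with fluorescent anti-GST. After masliner normalisation, the Universal PBM Analysis Suite scored each ungapped eight-base word together with its reverse complement by E-score.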

Sequence | PBM E-score
TCACGAGA | -0.115
GTAAACAA | 0.37
CGCCATCC | -0.192
ATGGGAAA | -0.15
ATAGCTCC | -0.221
CAAAAGTC | -0.0262
CACTCCAA | -0.0941
GCTATACA | 0.203
GTGTCTTA | 0.243
ACCATAGT | -0.117
GACTCGGC | -0.156
AGTACGCG | 0.308
GCGTAATA | 0.373
GAATAGTC | -0.118
TATCCCCA | -0.165
GTTCAATA | 0.0286
CTTTCTTA | 0.0716
AAGATCCA | -0.0804
CTTCCGGA | -0.134
AACAAGTA | 0.172
CCCTCCCA | -0.177
AACCTCTG | -0.0402
TGGCGCCA | -0.163
ACTGGGTC | -0.288
ATGGTATA | 0.178

Sequence | PBM E-score
GGAAAGAA | -0.00906
CGGGGTCA | -0.273
TGCGCCAA | -0.216
CCTGGGAC | -0.194
AGTATACG | 0.128
AATTTACA | 0.431
CCCCTTAC | -0.024
ACTACGCC | -0.187
CAATAGCA | -0.0841
ATAACATC | 0.327
GCTTACGA | 0.0137
AAAGAAAA | 0.0731
CGTCTCAA | 0.0229
ATTCTAAC | 0.138
GTAATAGA | 0.257
ACATTCAG | -0.00015
AAATAAAA | 0.142
AGCCAGTA | -0.229
TAGATATA | 0.0377
AATAACCA | 0.103
AATACAAC | 0.315
GAGGAATC | -0.207
CTTACCAC | 0.0369
ATGATTAC | 0.326
ATATAAAC | 0.235

Sequence | PBM E-score
CGCACGGC | -0.138
GGGTTTAA | 0.166
AGTCGGCC | -0.279
GTTGCGAA | 0.0227
TCGGGCAA | -0.154
GTCGGTAA | 0.0853
AGACAGCG | -0.0777
TACAGCTA | -0.0203
CGACTTGC | -0.197
GTGAGGAA | -0.213
ACAATGAT | 0.128
CGTGAAAC | 0.0577
ACGCAAAT | 0.162
GACATTAA | 0.18
CATGAGGA | -0.0501
CCCCACGA | -0.129
TCCACGAA | 0.0882
AGCTCCTC | -0.154
CCGTGCCC | -0.17
AAACGAGT | 0.135
ATGTTGAA | 0.395
CTCAATGC | -0.0878
AGTTTCAA | 0.0268
AACGATGC | -0.138
CCCCTCCA | -0.158

Sequence | PBM E-score
AGATTCCC | -0.244
CTATAACA | 0.335
ACGATGGG | -0.139
CCTGGGGC | -0.332
AACTGCTC | -0.0975
CGCTCTCC | -0.231
ACATGAAT | 0.371
CATCTGCC | -0.139
CATTTCAC | 0.0402
TAATCAGA | -0.00349
CTCCGCAC | -0.221
GCCCTCAC | -0.253
CCAGTCCG | -0.223
CCATTATC | 0.0776
AACAGATC | 0.142
ACGCGCCC | 0.162
GTTGGCTA | -0.121
GGGTTACC | -0.116
AATACAGG | 0.2
GCTGCTAA | -0.0568
GTCTTAGA | 0.102
CGTGCAAC | 0.0645
AGGCTTAT | -0.155
ATAACGGA | 0.125
ATAGCCTA | -0.00808

Sequence | PBM E-score
ACAACCCC | -0.0745
GATGGTAC | -0.0855
CAATTGTA | 0.0101
ATCAGATC | -0.171
CGTGGATA | 0.00463
AACGAGTA | 0.184
GCGGTACA | 0.0995
ACGTTCAG | -0.135
AAGCGGTC | -0.179
ATCCAGTC | -0.0582
AGCACACT | 0.012
AGACTACC | -0.0614
GCATAGCC | -0.0671
ATCAAACC | -0.021
CTTCGCTC | -0.224
GAAATCCA | 0.05
CTGCCGTC | -0.247
CAGCTGGG | -0.172
GGTTAATA | 0.129
CTGTTCGA | -0.0447
GGGTGAAC | 0.089
CTAACGAA | 0.0054
ATTCCTCC | -0.187
AAGTGATT | 0.0454
GACTTTTA | -0.0507

Sequence | PBM E-score
CTGTTGCC | -0.0825
ATAGACCG | -0.0246
GCAAAAGA | -0.165
GTGTTTAA | 0.351
ACGATTAG | 0.141
ATAGCCCG | -0.203
AGGGACTG | -0.311
ATACGCGG | 0.239
AAGTCATC | -0.205
AAGAACGG | -0.143
AGAAGGCC | -0.213
CTGCCAAA | -0.0421
CGATTCTA | -0.133
AAGAAGGT | -0.0083
AGTCCACT | -0.226
AAAAGTCC | 0.00655
CTACCGCC | -0.0878
TGGAGGAA | -0.256
CGATAAGC | -0.202
AGATAGGG | -0.343
AGACCAAG | -0.288
GAATGCAA | -0.0259
ACCGGTAC | -0.197
GAAAATGA | -0.00024
AATAATGA | 0.0386

Sequence | PBM E-score
ATGCGAAT | -0.0339
AACGGATA | 0.0178
CCAGTCAA | -0.166
ACTCCGGA | 0.131
AACCTTAT | -0.00844
ACGGGCAC | -0.0945
CGCGAGGC | -0.0264
AATAGATC | -0.0345
CCTTAGCC | -0.238
TCTAAAGA | 0.248
GGCCACCA | -0.139
GCGGTATA | -0.0483
CGTCCATA | 0.0125
CGGAATTA | 0.214
AGAGCAAG | -0.12
ACACGAGT | 0.389
GTGGCTAA | -0.0321
GGTACTAA | 0.0288
ACAATCGT | 0.214
CCAAGCGG | -0.288
ACGATCCC | -0.166
CCCGTTCA | -0.302
ACCTGATA | 0.202
CTATATAC | 0.255
CCAACAGG | -0.183

Sequence | PBM E-score
TTGACAAA | 0.207
AAAGGGGG | -0.11
GTTGCTAA | 0.143
CGATCTAC | 0.113
CGAACAGC | -0.112
CCTGTTAC | 0.176
CCCTGTGA | -0.148
CTGTGAAG | -0.109
GGAAGTTA | 0.169
AGGCATCC | -0.183
ATAACACG | 0.461
ATTTCCCA | 0.0804
CCCCCCGG | -0.366
GGTTCATA | 0.00306
AATCAAAC | 0.0913
AGAGATCC | -0.317
CCACTTAC | 0.171
CTAGCCGC | -0.119
ACTACAAT | 0.137
GGCGCGCC | -0.141
ATTGCAAG | 0.091
AGATCACA | 0.111
CATGTGGC | 0.188
CCCGAAAG | -0.159
AGGCAGAA | -0.197

Sequence | PBM E-score
AAGGCTAT | -0.161
GCAAGTCC | -0.179
AACATGCC | 0.388
CCGCTACA | 0.0775
ATTACCAA | 0.196
AAGGGCCG | -0.241
GGTACCCA | -0.123
CTCGGGCA | 0.076
ATGACTCC | -0.126
CGAGCCGA | -0.0411
AGACCATA | -0.0358
CTTAGTGA | -0.168
AAAGGGAT | -0.00422
AGCCTCGA | -0.0211
GCTTACAA | 0.275
CGTTCTAC | 0.139
ACCCGCGG | 0.0152
CTCTCCTC | -0.272
AGAAAGCC | -0.0885
